Source: paper PMC4336329 (PLoS ONE, 2015)
Screen size: about 310,000 compounds; about 2,200 (0.71%) showed an effect of 50% or more. Effects have a minus sign here. This is one part of the list.

Biological target: human ether-à-go-go-related gene (hERG) potassium channel (human, UniProt Q12809)
Test: primary screen, population patch clamp on CHO cells stably expressing hERG

Sequence of human ether-à-go-go-related gene (hERG) potassium channel (Q12809 whole entry, looked up): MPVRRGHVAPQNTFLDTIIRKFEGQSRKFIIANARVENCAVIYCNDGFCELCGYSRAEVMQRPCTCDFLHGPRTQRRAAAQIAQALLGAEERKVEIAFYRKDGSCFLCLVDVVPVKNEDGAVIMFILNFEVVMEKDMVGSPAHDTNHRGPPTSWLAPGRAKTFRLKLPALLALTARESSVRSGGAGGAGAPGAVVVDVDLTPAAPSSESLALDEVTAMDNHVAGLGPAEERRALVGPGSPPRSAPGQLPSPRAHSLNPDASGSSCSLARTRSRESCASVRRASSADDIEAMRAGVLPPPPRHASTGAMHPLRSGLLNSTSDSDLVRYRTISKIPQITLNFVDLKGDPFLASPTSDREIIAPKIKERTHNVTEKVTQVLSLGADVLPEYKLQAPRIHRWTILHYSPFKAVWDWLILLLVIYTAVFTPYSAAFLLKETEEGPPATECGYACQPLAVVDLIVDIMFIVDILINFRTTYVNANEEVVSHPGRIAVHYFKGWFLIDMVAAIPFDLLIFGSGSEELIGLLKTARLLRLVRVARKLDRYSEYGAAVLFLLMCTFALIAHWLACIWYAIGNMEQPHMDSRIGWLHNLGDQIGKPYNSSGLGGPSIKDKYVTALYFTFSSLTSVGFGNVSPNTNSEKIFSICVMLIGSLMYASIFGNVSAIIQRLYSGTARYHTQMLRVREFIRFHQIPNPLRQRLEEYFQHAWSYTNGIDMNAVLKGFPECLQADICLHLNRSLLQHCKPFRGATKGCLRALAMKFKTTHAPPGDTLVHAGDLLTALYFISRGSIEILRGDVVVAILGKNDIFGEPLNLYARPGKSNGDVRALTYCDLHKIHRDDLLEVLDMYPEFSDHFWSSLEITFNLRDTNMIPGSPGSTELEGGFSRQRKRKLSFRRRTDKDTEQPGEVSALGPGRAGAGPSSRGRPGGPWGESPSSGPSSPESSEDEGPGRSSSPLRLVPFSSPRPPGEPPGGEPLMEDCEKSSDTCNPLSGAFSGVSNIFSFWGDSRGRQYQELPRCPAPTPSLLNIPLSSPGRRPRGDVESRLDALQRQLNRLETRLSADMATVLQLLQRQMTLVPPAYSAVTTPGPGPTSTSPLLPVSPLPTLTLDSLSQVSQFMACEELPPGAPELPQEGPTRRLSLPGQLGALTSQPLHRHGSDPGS

| Structure (SMILES) | hERG current change (%, negative = inhibition) at 1uM |
| --- | --- |
| Cc1ccc2c(CSc3nncn3C)cc(=O)oc2c1C | 15.4% |
| COc1ccc(-n2nc3c(c2NC(=O)COc2ccccc2)CS(=O)(=O)C3)cc1 | 12.6% |
| CC1(C)CC(=O)C(C=NCCN2CCN(C(=O)c3ccccc3)CC2)=C(O)C1 | 17.3% |
| COCCCNC(=O)Cn1nc(-c2ccccc2OC)ccc1=O | 11.5% |
| Cc1cc(Cn2nnc3ccccc32)c(O)c(C(C)(C)C)c1 | 23.6% |
| C#CCOCCOCCOCCNc1nc(N2CCN(C(=O)Cn3cc(CC(C)O)nn3)CC2)nc(N2CCN(C(=O)[C@H](CCCC[NH3+])n3cc(CCC(=O)O)nn3)CC2)n1.[Cl-] (stereo partly drawn) | 10.6% |
| O=S(=O)(c1ccc(Cl)cc1)N1CCCN(c2ccc(C(F)(F)F)cn2)CC1 | 4.45% |
| CCOc1ccc2[nH]c(=O)c(CN(Cc3ccccc3)C(=O)N3CCCC3)cc2c1 | 18.9% |
| CN(C)c1ccc(C(=O)Nc2ccc(CN3CCS(=O)(=O)CC3)cc2)cc1 | 12% |
| COCCCN(C(=O)c1ccccc1)c1nc(-c2ccc(OC)cc2)cs1 | 14.5% |
| O=C(Cn1nc(Cl)nc1Cl)c1ccc([N+](=O)[O-])cc1 | 10.2% |
| O=C(Nc1nc2ccccc2[nH]1)c1ccccc1F | -5.91% |
| Oc1c(N=NC(=S)Nc2ccccc2F)c2ccccc2n1Cc1cccc(Cl)c1 | 10.6% |
| CS(=O)(=O)N1CCN=C1SCc1ccccc1 | 14.4% |
| Cc1cc(C(=O)COC(=O)CNC(=O)c2ccc(Cl)c(Cl)c2)c(C)n1Cc1ccco1 | 16.4% |
| CC(=O)Cn1ncc(N2CCOCC2)cc1=O | 9.01% |
| Cc1ccc(NC(=S)NNC(=O)CSc2nnc(-c3ccc(Cl)cc3)n2C2CCCCC2)cc1 | 10.3% |
| CN(CCOc1ccccc1)CC(=O)Nc1cccc(C#N)c1 | 10% |
| CCC(=O)NC(=S)Nc1ccc(-c2nc3ccc(C)cc3s2)cc1 | 1.81% |
| COc1cccc(C(=O)NCCS(=O)(=O)NCc2cccs2)c1 | 7.77% |
| COC(=O)c1[nH]c2cc(OC)ccc2c1NC(=O)c1nonc1C | 11.7% |
| COc1ccc(-c2cc(C(=O)N3CCN(c4ccccn4)CC3)c3ccccc3n2)cc1 | -3.67% |

| Structure (SMILES) | hERG current change (%, negative = inhibition) at 1uM |
| --- | --- |
| CC(=O)Oc1ccc(-c2cccc(C(=O)NCC(=O)O)c2)cc1 | 16.4% |
| COC(=O)C1=C(c2cccc(C#N)c2)C[C@@H]2CC[C@H]1N2C(=O)NCCCOC(C)C | 9.53% |
| Cc1ccc(NC(=O)NCCCCc2ccccc2)cc1 | 14.4% |
| CCOC(=O)CNC(=O)COc1ccc(Cl)cc1Br | 3.34% |
| O=C(CN(Cc1ccc(Cl)cc1)C(=O)CNS(=O)(=O)c1ccccc1)NCC1CCCO1 (stereo not drawn) | 18.5% |
| O=C(O)COc1ccc(/C=N/NC(=O)C2CCCN2S(=O)(=O)c2ccc(Cl)cc2)cc1 (stereo not drawn) | 17.1% |
| Cc1cnc(NC(=O)CSc2nnc(COc3c(C)cccc3C)o2)s1 | 11.6% |
| Cc1ccc(OCCCCn2cnc3ccccc32)cc1.Cl | 5.42% |
| COc1ccc(NC(=O)/C(C#N)=C\c2ccc(Br)o2)cc1 | 5.71% |
| CC(=O)Oc1ccc2c(=O)c(-c3ccccc3)c(C)oc2c1 | 18.2% |
| N#CCC(=O)Nc1ccccc1C(=O)O | 4.05% |
| CCOC(=O)c1sc(NC(=O)C2CC=CCC2C(=O)O)nc1C (stereo not drawn) | 13.7% |
| CSc1nccc(N2CCN(c3ccc(F)cc3)CC2)n1 | 2.01% |
| CCOc1ccccc1C(=O)N1CCC(C(=O)c2ccc(F)cc2)CC1 | 2.3% |
| COc1ccc(NC(=O)c2ccco2)cc1S(=O)(=O)N1CCOCC1 | 9.71% |
| CCC(=O)Nc1nnc(Sc2ccc(N(C)C)cc2)s1 | 9.84% |
| O=C(CN1CCC(NC(=O)c2cccc(F)c2)CC1)NCc1ccccc1F | -3.17% |
| O=C(COc1ncnc2ccccc12)N1CCN(c2ccccc2)CC1 | -0.0215% |
| COc1ccc(CCNC(=O)c2cc3cccc(OC)c3oc2=O)cc1OC | 23.2% |
| O=C(NC1CCCC1)C1CC(=O)N(c2ccc(F)c(Cl)c2)C1 (stereo not drawn) | 7.43% |
| O=C(NCCCN1CCOCC1)c1cc(-c2ccccc2F)no1 | 19.7% |
| O=C(COC(=O)CNC(=O)c1ccc(Br)o1)Nc1ccccc1OC(F)F | -16% |

| Structure (SMILES) | hERG current change (%, negative = inhibition) at 1uM |
| --- | --- |
| COC(=O)C[C@H]1c2cc(F)ccc2S(=O)(=O)N1Cc1ccccc1 | 2.98% |
| CCCCNC(=O)[C@@H]1CSC2c3ccccc3C(=O)N21 (stereo partly drawn) | 6.55% |
| CC(=O)c1ccc(S(=O)(=O)N2CCN(C(=O)c3ccccc3Cc3ccccc3)CC2)cc1 | 3.46% |
| O=C(CCCN1C(=O)S/C(=C\C=C\c2ccccc2)C1=O)Nc1ccc(C(=O)O)cc1 | 16.2% |
| Cc1ccc2cc3c(NS(=O)(=O)c4cccc5nonc45)nn(CC(C)C)c3nc2c1 | 4.86% |
| CC(=O)Nc1ccc(C(=O)Nc2ccncc2)cc1 | 12% |
| CCOC(=O)c1c(C)[nH]c(C(=O)OCC(=O)N(CC(C)C)C2CCS(=O)(=O)C2)c1C (stereo not drawn) | 9.09% |
| COc1cc2c(cc1OC)-c1c(OC)c(OC)cc3c1C(C2)N(C)CC3 (stereo not drawn) | 5.94% |
| Cc1cccc(-c2noc(-c3ccno3)n2)c1 | 10.4% |
| CCOC(=O)C1(Cc2ccccc2)CCN(Cc2cnn(C(C)C)c2)CC1 | -2.04% |
| COc1ccc(OC)c(N(CC(=O)N2CCCC2)S(C)(=O)=O)c1 | 9.98% |
| COc1ccccc1NC(=O)CNc1ccc(F)c(Cl)c1 | 1.44% |
| CN(C)CCCn1c(=S)[nH]c2sc3c(c2c1=O)CCCC3 | 6.5% |
| CC(Sc1nc(-c2ccccc2)cs1)C(=O)Nc1ccc(Cl)cn1 (stereo not drawn) | 10.6% |
| O=C(C1CCC1)N1CCN(S(=O)(=O)c2ccccc2)CC1 | 14.7% |
| CCn1cnc2c1c(=O)n(CC(=O)NCC(C)C)c(=O)n2Cc1ccccc1 | 14.7% |
| COc1ccc(/C=C/C(=O)NCc2cccnc2)cc1 | 13.1% |
| ON1C2CCCCC2N(O)C1c1ccccc1C(F)(F)F (stereo not drawn) | 8.73% |
| Cc1ccc(NC(=O)CN(C)C(=O)c2ccc(NC(=O)CC3SC(N4CCCC4)=NC3=O)cc2)cc1 (stereo not drawn) | 4.38% |
| NC(=O)[C@@H]1CCCCNc2c(F)cc([N+](=O)[O-])cc2C(=O)N[C@@H](CC(=O)O)C(=O)N[C@@H](CCC(=O)O)C(=O)N1 | 14.8% |
| Cc1ccc2c(c1)C(C)CC(C)(C)N2C(=O)NC1CCCCC1 (stereo not drawn) | 14.8% |
| CCOC(=O)N1CCC(NC(=O)C2CCCN2C(=O)OCc2ccccc2)CC1 (stereo not drawn) | -0.223% |

| Structure (SMILES) | hERG current change (%, negative = inhibition) at 1uM |
| --- | --- |
| C/C(=N\NC(=O)c1ccc(NS(=O)(=O)c2cccs2)cc1)c1cccs1 | 0.571% |
| CC(Oc1ccc(F)cc1)C(=O)Oc1ccc(N(C)S(=O)(=O)c2ccccc2)cc1 (stereo not drawn) | 20% |
| Cc1cc(C)n2c(SCC(=O)NCc3ccc4c(c3)OCO4)nnc2n1 | 10.8% |
| Cc1nn(Cc2ccccc2Cl)c(C)c1NC(=O)NC12CC3CC(CC(C3)C1)C2 | 9.14% |
| CCN(CC)c1nc2c3c(nc4c(c3c1C#N)CC(=O)N4c1ccc(Cl)cc1)NC(C)=N2 | 1.84% |
| CN1CCN(S(=O)(=O)c2cccc(C(=O)NCCC3=CCCCC3)c2)CC1 | 4.76% |
| COc1ccc(CCC(=O)Nc2cc(S(=O)(=O)N3CCOCC3)ccc2OC(C)C)cc1 | -4.48% |
| CC(=O)SC(C[N+](=O)[O-])c1cn(C(C)=O)c2ccccc12 (stereo not drawn) | 7.46% |
| Cc1cc(OCC(=O)O)c2ccccc2n1 | 16.4% |
| CN1CCN(c2nc3c(c(=O)[nH]c(=O)n3C)n2Cc2ccccc2)CC1 | 0.758% |
| CCOC(=O)C(O)(CC(=O)Nc1ccc(Cl)cc1Cl)C(F)(F)F (stereo not drawn) | 6.91% |
| C(=C\c1nc(N2CCCC2)c2ccccc2n1)/c1ccccc1 | -25.2% |
| CC(C)(C)c1ccc(/C=C(\c2nc3ccccc3[nH]2)S(=O)(=O)c2ccccc2)cc1 | 11.5% |
| Cc1cc(C(=O)NC2CC(C)(C)Cc3c2cnn3-c2ccccc2)n[nH]1 (stereo not drawn) | -14% |
| COc1ccc(CCNC(=O)CNCC2CCCO2)cc1OC.O=C(O)C(=O)O (stereo not drawn) | 10.5% |
| CC1(c2nnc(Cc3ccccc3)o2)CC(c2c(Cl)cccc2Cl)=NO1 (stereo not drawn) | 1.4% |
| Cc1ccc(C(=O)/C=C/c2cc(Br)cc(Br)c2O)o1 | 14.6% |
| Cc1ccc(-n2nnnc2SCC(=O)N2CC(=O)Nc3ccccc32)cc1 | -0.829% |
| Cc1ccc(C)c(OCC(=O)Nc2ccccc2N2CCCC2)c1 | 13% |
| CCNC(=O)C1Cc2ccccc2CN1S(=O)(=O)c1ccc(F)cc1 (stereo not drawn) | -6.04% |
| O=C(CCNS(=O)(=O)c1ccccc1)N1CCCCCCC1 | 5.17% |
